# Experimental data: PubChem BioAssay AID2675 (National Center for Advancing Translational Sciences (NCATS), 2010)
# The campaign covered roughly 280,000 compounds. About 100 (0.036%) were called active. This list was built around the results that the source calls inconclusive (neither active nor inactive); the mix of calls is not that of the screen. Calls come from the whole dose curve; as a rule, active = well fitted inhibition curve with a large enough effect in the signal ratio, with a control signal flat (not every such curve was filed as active); inconclusive = small, poorly fitted or top-dose-only effect, or effect the other way, or a change in a side signal; inactive = no such curve, though single readings can be large or run the other way; the % refers to the signal ratio. Potencies of inconclusive entries are doubtful fits and often do not repeat. “Side channel” marks fits to a control or component signal instead of the main read-out.
# Molecular target: Muscleblind-like protein 1 (Homo sapiens) (UniProt Q9NR56)
# Chain of UniProt Q9NR56 (Q9NR56 whole entry, looked up): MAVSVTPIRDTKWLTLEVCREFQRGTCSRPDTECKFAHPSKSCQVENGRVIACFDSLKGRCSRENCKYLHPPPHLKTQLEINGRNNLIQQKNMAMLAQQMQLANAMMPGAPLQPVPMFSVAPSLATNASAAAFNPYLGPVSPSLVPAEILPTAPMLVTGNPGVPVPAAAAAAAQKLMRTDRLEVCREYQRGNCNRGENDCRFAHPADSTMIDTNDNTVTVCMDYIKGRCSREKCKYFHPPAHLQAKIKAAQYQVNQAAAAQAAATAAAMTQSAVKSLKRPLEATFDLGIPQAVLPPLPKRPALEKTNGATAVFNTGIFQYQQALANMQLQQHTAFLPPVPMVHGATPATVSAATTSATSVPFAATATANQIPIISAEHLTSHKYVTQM
# Assay: qHTS Assay for Inhibitors of MBNL1-poly(CUG) RNA binding
# Conditions: TR-FRET MBNL1-His/biotin-(CUG)12 binding, 665/545 ratio; activity change, negative = inhibition: at 57.5 µM (top of the series)
# How it was run: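 His-tagged MBNL1 binding to biotinylated (CUG)12 RNA was measured by TR-FRET using terbium anti-His antibody (0.055 ng/ul final) and streptavidin-XL665 (5 nM final). Compounds were titrated 92 nM to 58 uM; 60 min at room temperature.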
# % is set by controls: 0 for no effect and ±100 for the full control effect; potency is the fitted concentration of half-maximal effect; tags give direction and shape of the fitted curve or compound fluorescence and quenching.
SMILES,Potency,"activity change, negative = inhibition"
COc1ccc(CN2CN(c3ccc(Cl)cc3)C(=O)N(n3cnnc3)C2)cc1,"inconclusive: 100 µM [inhibitor, partial curve]",–
CCN1CCCC1CNc1ccc(S(C)(=O)=O)cc1[N+](=O)[O-] (stereo not given),"inconclusive: 14.1 µM [quencher, side channel, partial curve]",–
CCCS(=O)(=O)Nc1ccc(-c2ccc3nnc(C)n3n2)cc1,"inconclusive: 17.8 µM [quencher, side channel, partial curve]",–
C=CCN1C(=O)/C(=C2/Sc3ccccc3N2C)SC1=Nc1ccccc1C,"inconclusive: 44.7 µM [quencher, side channel, single point]",–
Cc1ccc(-c2cc(C(F)(F)F)n3ncc(C(=O)N4CCN(C)CC4)c3n2)cc1,"inconclusive: 12.6 µM [quencher, side channel, partial curve]",–
CN1C(=O)c2ccc(C(=O)NCc3ccccc3)cc2C1=O,"inconclusive: 25.1 µM [quencher, side channel, partial curve]",–
CCN(CC)c1ccc2cc(NC(=O)CCC(=O)O)c(=O)oc2c1,"inconclusive: 17.8 µM [quencher, side channel, partial curve]",–
Cc1n[nH]c(=S)n1-c1ccc(Cl)cc1,–,inactive: 14.2%
CC(=O)N(Cc1ccc(F)cc1)C1=C(NCCc2ccccc2)C(=O)c2ccccc2C1=O,"inconclusive: 15.8 µM [quencher, side channel, partial curve]",–
Cc1ccc(SCc2cc(=O)[nH]c(/N=C(\N)Nc3ccccc3Sc3ccccc3)n2)cc1,"inconclusive: 100 µM [inhibitor, single point]",–
CCCC(C)C(=O)Nc1cccc(NC(C)=O)c1 (stereo not given),–,inactive: -5.16%
O=C1c2cc(F)ccc2-n2c1nc1ccccc1c2=O,"inconclusive: 0.501 µM [quencher, side channel, full curve]",–
O=[N+]([O-])c1ccc2c(c1)nc1n2CCCCC1,"inconclusive: 35.5 µM [quencher, side channel, partial curve]",–
COc1ccc(N2C(=O)CC(Sc3n[nH]c(-c4ccccc4)n3)C2=O)cc1 (stereo not given),–,inactive: 5.2%
Cc1ccc(C(=O)NCCCC(=O)O)o1,"inconclusive: 39.8 µM [quencher, side channel, single point]",–
COc1ccc(CN2C(=O)c3cccnc3C2=O)cc1S(=O)(=O)N(C)c1cccc(C)c1,"inconclusive: 14.1 µM [quencher, side channel, partial curve]",–
CC(C)(CO)NS(=O)(=O)c1ccc2c(c1)C(=O)c1cc(S(=O)(=O)NC(C)(C)CO)ccc1-2,"inconclusive: 10 µM [quencher, side channel, partial curve]",–
CCc1cc(C(=O)c2ccc(OC)cc2)c(NC(=O)COCC(=O)O)s1,"inconclusive: 0.355 µM [quencher, side channel, full curve]",–
CCOc1ccc(C2NC(=O)C(C#N)=C(S)N2c2ccc(OC)cc2)cc1OC (stereo not given),–,inactive: -10.6%
Cc1ccnn1CC(=O)N/N=C/c1ccc([N+](=O)[O-])s1,"inconclusive: 8.91 µM [quencher, side channel, partial curve]",–
Cn1ccnc1C(=O)c1cc(=O)c2ccccc2o1,"inconclusive: 25.1 µM [quencher, side channel, partial curve]",–
Cc1ccc(-c2nc3nc4ccccc4nc3n2Cc2ccco2)cc1,"inconclusive: 10 µM [quencher, side channel, partial curve]",–

SMILES,Potency,"activity change, negative = inhibition"
Nc1nccc(-c2cccs2)n1,–,inactive: 13.7%
C=CCN1C(=O)c2ccc(C(=O)NCC(c3ccccc3)N(C)C)cc2C1=O (stereo not given),"inconclusive: 12.6 µM [quencher, side channel, partial curve]",–
CC(C)(C)Nc1nc(Nc2ccc([N+](=O)[O-])cc2)nc(NC(C)(C)C)n1,–,inactive: -1.86%
Cc1ccc(Nc2c(N)c(=O)oc3ccccc23)cc1,"inconclusive: 17.8 µM [quencher, side channel, partial curve]",–
CC(NC(=O)C1CCN(S(=O)(=O)c2cccc3nonc23)CC1)c1ccccc1 (stereo not given),"inconclusive: 7.08 µM [quencher, side channel, partial curve]",–
Cc1ccc(N2CCN(C(=O)c3cc(-c4ccc(F)cc4)[nH]c3C)CC2C)cc1 (stereo not given),–,inactive: -4.33%
O=C(C1=NN[C@@H]2C(=O)N(c3cccc(F)c3)C(=O)[C@H]12)c1ccc2ccccc2n1,"inconclusive: 14.1 µM [quencher, side channel, partial curve]",–
O=C(N/N=C\C=C\c1ccc([N+](=O)[O-])o1)c1cccs1,"inconclusive: 4.47 µM [quencher, side channel, full curve]",–
C[C@@H]1CCC2[C@](C)(CO)[C@@H](O)CC[C@]2(C)[C@@]12CCC(CO)(CCO)O2 (stereo not given in full),–,inactive: -6.36%
COc1ccc(NC(=O)COc2ccc(/C=C/c3cccc[n+]3C)cc2OC)cc1,"inconclusive: 3.55 µM [quencher, side channel, full curve]",–
O=[N+]([O-])c1ccc(NCCCN2CCOCC2)c([N+](=O)[O-])c1,"inconclusive: 3.16 µM [quencher, side channel, partial curve]",–
CSC1=NSC2=NC(=O)/C(=C\c3ccc(OC(=O)c4ccco4)cc3)C(=N)N12,–,inactive: 6.56%
Cc1cccn2c(=O)c3cc(C(=O)NCCN4CCOCC4)c(=N)n(Cc4ccc(F)cc4)c3nc12,"inconclusive: 3.55 µM [quencher, full curve]",–
O=C(Nc1ccccc1O)c1cc(S(=O)(=O)N2CCOCC2)c(Cl)cc1Cl,"inconclusive: 100 µM [inhibitor, single point]",–
O=C1Cc2ccccc2Sc2ccccc21,–,inactive: 14.7%
c1ccc(SCCN2CCc3ccccc3C2)cc1,–,inactive: 3.52%
COC(=O)CCCC1=CC2=C(c3ccccc3)C(=O)C(C)(OC(=O)C3CCCC3)C(=O)C2=CN1CCCCO (stereo not given),"inconclusive: 31.6 µM [quencher, side channel, partial curve]",–
CN1CCN(C(=O)/C(=C/c2ccccc2)c2ccccc2)CC1,–,inactive: 5.55%
COc1ccccc1C1=NOC(C)(c2sc(-c3ccc(Cl)cc3)nc2C)C1 (stereo not given),–,inactive: -5.03%
Cc1ccc(-c2nnnn2C2C/C(=N\NC(N)=S)C3OCC2O3)cc1 (stereo not given),–,inactive: -0.0495%
CN1C(=CC=C2C=C(I)C(=O)C(I)=C2)C(C)(C)c2ccccc21,"inconclusive: 1.26 µM [quencher, side channel, full curve]",–
Cc1cccc(C(C)Nc2ccc([N+](=O)[O-])cn2)c1 (stereo not given),"inconclusive: 15.8 µM [quencher, side channel, partial curve]",–

SMILES,Potency,"activity change, negative = inhibition"
CN(C)c1ccc(NC(=O)CSc2nnc(-c3ccco3)c(-c3ccco3)n2)cc1,"inconclusive: 15.8 µM [quencher, side channel, partial curve]",–
CC(C)(C)NC(=O)Cn1c(SCC(=O)Nc2nccs2)nc2ccccc21,"inconclusive: 39.8 µM [quencher, side channel, single point]",–
COC(=O)CCCC1=CC2=CC(=O)C(C)(OC(=O)c3cccs3)C(=O)C2=CN1CC(C)C (stereo not given),"inconclusive: 14.1 µM [quencher, side channel, partial curve]",–
COc1cc(/C=N/NC(=O)c2ccc(Cl)cc2)ccc1OCC(=O)N1CC(C)OC(C)C1 (stereo not given),–,inactive: 23.1%
O=Nc1ccc(NOC(=O)c2ccccc2)cc1,"inconclusive: 14.1 µM [quencher, side channel, partial curve]",–
COCC(C)NC(=O)CSc1nc2nn(-c3ccccc3)c(=O)c-2c2n1CCCCC2 (stereo not given),"inconclusive: 17.8 µM [quencher, side channel, partial curve]",–
CCCN1CCC(=NNc2ccc(S(N)(=O)=O)cc2[N+](=O)[O-])CC1,"inconclusive: 12.6 µM [quencher, side channel, partial curve]",–
CC(C)NCCCCOc1ccc(Br)cc1Cl,–,inactive: -9.7%
NC(=O)c1cc2c(s1)-c1cc(Cl)ccc1SC2,"inconclusive: 28.2 µM [quencher, side channel, single point]",–
CCOC(=O)c1c(-c2ccc(C)o2)csc1NC(=O)CSc1ncn[nH]1,–,inactive: 0.217%
Cc1cc(C)cc(OCC(=O)OCC(=O)Nc2c(C)n(C)n(-c3ccccc3)c2=O)c1,"inconclusive: 25.1 µM [quencher, side channel, single point]",–
Cc1cccc(NC(=O)c2sc(Cl)nc2-c2ccccc2)c1,"inconclusive: 31.6 µM [fluorescent, side channel, single point]",–
CCN1CCN(CCCNC(=O)c2cc3c(s2)-c2ccccc2OC3)CC1,"inconclusive: 14.1 µM [quencher, side channel, partial curve]",–
CCOC(=O)c1c(C)[nH]c(C(=O)N/N=C/c2cccc(OC)c2)c1C,–,inactive: 5.85%
COc1cc(OC)cc(-n2nnnc2SCC(=O)N2CCCc3ccccc32)c1,–,inactive: -0.462%
COc1ccc(S(=O)(=O)NC2CCCCC2)cc1C,–,inactive: -0.0823%
O=C(Nc1cccc2ccccc12)c1ccc([N+](=O)[O-])o1,"inconclusive: 14.1 µM [quencher, partial curve]",–
CCN=C(N/N=C/c1ccc([N+](=O)[O-])cc1)SC,"inconclusive: 11.2 µM [quencher, side channel, partial curve]",–
CCn1c(-c2cc(Br)cc(OC)c2O)nc2cc(S(=O)(=O)N(C)C)ccc21,–,inactive: 8.57%
O=C(Cn1cc(F)c(=O)[nH]c1=O)NCCO,–,inactive: -5.95%
Cc1ccc(-n2c(C)cc(/C=N/NC(=O)CC3(C)OCCO3)c2C)cc1,"inconclusive: 11.2 µM [quencher, side channel, partial curve, poor fit]",–
